Experimental data as given in PubChem BioAssay AID2546 (National Center for Advancing Translational Sciences (NCATS), 2010).
In all, about 310,000 compounds went through this assay and about 11,000 (3.5%) were called active. This list was built around the results that the source calls inconclusive (neither active nor inactive); the mix of calls is not that of the screen. The call rests on the fitted dose curve; in most records, active means well fitted inhibition curve with a large enough effect; inconclusive means small, poorly fitted or top-dose-only effect, or effect the other way; inactive means flat fitted curve, though single readings scatter. No potency is given beside an inconclusive call; the fits are too rough.

Assay: VP16 counterscreen qHTS for inhibitors of ROR gamma transcriptional activity;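 further: Gal4-VP16 expression switched on by copper sulfate through the metallothionein promoter; nearly all actives have a fitted effect of over 50% in size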
Conditions: Drosophila S2 Gal4-VP16 UAS-luciferase, luminescence, 20 h; activity, negative = inhibition: at 53.6 µM (top of the series)
On the % scale 0 is the no-effect control and ±100 the full control effect; potency means the concentration at half of the fitted maximal effect; tags describe the fitted curve by direction and shape.

Row | Compound | Potency | activity, negative = inhibition
1 | O=C(N/N=C/C=C/c1ccccc1[N+](=O)[O-])c1cc(-c2ccccc2)n[nH]1 | active: 14.1 µM | 
2 | O=C1c2ccccc2CN1CCNC(=S)NC1CCCCC1 | inactive | 
3 | COC(=O)c1c(NC(=O)CN2CCCc3ccccc32)sc(C)c1C | inconclusive [inhibitor, single point] | 
4 | CCOC(=O)Cc1csc(NC(=O)c2ccc(C)cc2)n1 | inactive | 
5 | Cc1cc(C)n(C(C)CNC(=O)c2ccc3c(c2)OCO3)n1 (stereo not drawn) | inactive | 
6 | COc1ccc(-c2n[nH]c(C)c2-c2ccc(OC)c(OC)c2)c(O)c1 | inconclusive [inhibitor, single point] | 
7 | CCOC(=O)COc1ccccc1C1Nc2ccccc2C(=O)N1c1cccc(Cl)c1 (stereo not drawn) | inconclusive [inhibitor, single point] | 
8 | Cc1ccc2nc(SC(C)C(=O)NC3CCCc4ccccc43)[nH]c2c1 (stereo not drawn) | inconclusive [inhibitor, single point] | 
9 | COc1cc(O)c2c(c1)oc(=O)c1c3cc(O)c(O)cc3oc21 | inconclusive [inhibitor, single point] | 
10 | COCCNC(=O)Cc1c(C)c2c(cc(C)c3c(C(C)(C)C)coc32)oc1=O | inconclusive [inhibitor, single point] | 
11 | O=C(NC(c1ccc(Cl)cc1)c1c(O)ccc2ccccc12)c1ccccc1 (stereo not drawn) | inconclusive [inhibitor, single point] | 
12 | Cc1cccc(NC(=O)CN(C)S(=O)(=O)c2cccs2)c1 | inconclusive [inhibitor, single point] | 
13 | S=c1[nH]nc(-c2ccccc2)c2ccccc12 | active: 11.2 µM | 
14 | COc1ccccc1NC(=S)NCc1ccccn1 | inconclusive [inhibitor, single point] | 
15 | COc1ccc(Cc2nnc(NC(=O)CSc3ccc(C)cc3)s2)cc1OC | inconclusive [inhibitor, single point] | 
16 | CCOc1ccc(S(=O)(=O)N/N=C(\C)C2CCCCC2)cc1 | inconclusive [inhibitor, single point] | 
17 | C[C@H]1COc2c(C3(N)CC3)c(F)cc3c(=O)c(C(=O)O)cn1c23 | inactive | 
18 | CCN(CC)Cc1nc2c(c(=O)[nH]1)C(CC)(CC)Cc1ccccc1-2 | active: 5.01 µM | 
19 | Cc1ccc(S(=O)(=O)N2CCOC2CNC(=O)C(=O)NCCCc2ccccc2)cc1 (stereo not drawn) | inconclusive [inhibitor, single point] | 
20 | Cn1c(=O)c2c(nc(NCc3ccc4c(c3)OCO4)n2Cc2ccccc2)n(C)c1=O | active: 7.08 µM | 
21 | CCN1C(=O)C(CC(=O)Nc2ccc(F)cc2)N(Cc2ccco2)C1=S (stereo not drawn) | inconclusive [inhibitor, single point] | 
22 | Cc1ccc(C(=O)N2CCCC(C(=O)c3ccc(Oc4ccccc4)cc3)C2)cn1 (stereo not drawn) | inconclusive [inhibitor, single point] | 
23 | CC(=O)c1sc(NC(=O)c2cc(-c3ccccc3)nn2-c2ccccc2)nc1C | inconclusive [inhibitor, single point] | 
24 | COc1ccc2[nH]cc(C(=O)CCl)c2c1 | active: 6.31 µM | 
25 | O=c1cnc2cnc(N3CCNCC3)nc2n1Cc1cccs1 | inactive | 

Row | Compound | Potency | activity, negative = inhibition
26 | CC1Cc2cc(S(=O)(=O)NCc3ccccc3)ccc2N1C(=O)C1CC1 (stereo not drawn) | inconclusive [inhibitor, single point] | 
27 | COc1ccccc1OC1=NS(=O)(=O)c2ccccc21 | inactive | 
28 | CN(C)c1ccc(N2C(=O)CSC2=S)cc1 | inconclusive [inhibitor, single point] | 
29 | Cc1nc(NCCc2ccccc2)sc1C(=O)O | inconclusive [inhibitor, single point] | 
30 | O=C(Nc1ccc(-c2nc3cc(Cl)ccc3o2)cc1)C1CCCO1 (stereo not drawn) | inconclusive [inhibitor, single point] | 
31 | Cc1cc(C)nc(N/N=C/C(Cl)=C/c2ccccc2)n1 | inconclusive [inhibitor, single point] | 
32 | COc1cccc(C(=O)/C=C2\Sc3ccccc3N2C)c1 | inconclusive [inhibitor, single point] | 
33 | CCS(=O)(=O)c1cc([N+](=O)[O-])c(Sc2ccccc2NC(C)=O)s1 | inconclusive [inhibitor, single point] | 
34 | CCC(=O)N/N=C/c1ccc(-c2ccc(Cl)cc2)o1 | inactive | 
35 | Cc1c(C(=S)Nc2ccccc2)cnn1-c1ccc([N+](=O)[O-])cc1 | inconclusive [inhibitor, single point] | 
36 | S=C(c1ccc(N2CCCC2)cc1)N1CCCCC1 | inconclusive [inhibitor, single point] | 
37 | COCCn1c(=O)c(-c2cc(F)cc(F)c2)nc2cnc(OC)nc21 | inactive | 
38 | COc1ccc(NC(=S)N(Cc2ccccn2)Cc2ccccc2Cl)cc1 |  | inactive: -14.8% [at 10 µM]
39 | CCC(=O)NC(=S)Nc1ccccc1C(=O)OC | inconclusive [inhibitor, single point] | 
40 | CCN(CC)CCOC(=O)c1ccc([N+](=O)[O-])cc1 | inconclusive [inhibitor, single point] | 
41 | Cc1ccnc(SC2CC(=O)N(c3ccc(F)cc3)C2=O)n1 (stereo not drawn) | inconclusive [inhibitor, partial curve, poor fit] | 
42 | CCN(CC)S(=O)(=O)c1ccc(Cl)c(NC(=O)CCCCl)c1 | inactive | 
43 | Cc1cc(C)c(NC(=S)NCC2CCN(C(C)c3ccccc3)C2)c(C)c1 (stereo not drawn) | inconclusive [inhibitor, single point] | 
44 | COc1ccccc1-c1nnc(NC(=O)c2ccc(S(=O)(=O)N(C)CC3CCCO3)cc2)o1 (stereo not drawn) | active: 1 µM | 
45 | O=C1/C(=C/c2ccccc2)SC(=S)N1C1CCS(=O)(=O)C1 (stereo not drawn) | inconclusive [activator, partial curve] | 
46 | Cc1ccc(OCCn2c(=S)[nH]c3ccccc32)c(C(C)C)c1 | active: 3.98 µM | 
47 | N#C/C(=C/c1ccc([N+](=O)[O-])cc1)C(=O)Nc1ccccc1O | inconclusive [inhibitor, single point] | 
48 | Nc1nc2ccccc2n1/N=C/c1ccc2c(c1)OCO2 | inconclusive [inhibitor, single point] | 
49 | Cc1cnc(NC(=O)COc2ccccc2Cl)s1 | active: 7.94 µM | 
50 | O=C(N=Nc1c(O)n(Cc2ccccc2)c2ccccc12)c1ccc(O)cc1 | inactive | 

Row | Compound | Potency | activity, negative = inhibition
51 | O=C(CSc1nnc(-c2ccccc2)n1Cc1ccco1)Nc1ccc2c(c1)OCCO2 | inconclusive [activator, full curve, poor fit] | 
52 | O=C(Nc1ccc(Cl)cc1)C(Cl)C(=O)c1ccccc1 (stereo not drawn) | inconclusive [inhibitor, single point] | 
53 | CN(C)C(=S)NC(=O)C12CC3CC(C)(CC(C)(C3)C1)C2 | active: 22.4 µM | 
54 | O=c1c2cc(NC(=S)NC3CCCCC3)ccc2nc2n1CCCCC2 | inactive | 
55 | CCOC(=O)c1c(NC(=O)CSc2nnnn2-c2ccc3c(c2)OCCO3)sc(C)c1C | inactive | 
56 | CSc1ccc(CN(C)Cc2nc3cc(C(F)(F)F)ccc3c(=O)[nH]2)cc1 | inconclusive [inhibitor, single point] | 
57 | Cc1nn2cnnc2c(C)c1Cc1ccc(Cl)cc1 | inactive | 
58 | Cc1ccc(C(=O)n2nc(-n3cccc3)c3c(C)cc(C)nc32)cc1 | inconclusive [activator, single point] | 
59 | COc1cc(Cl)ccc1NC(=S)N(CCCN1CCOCC1)Cc1cn(C)c2ccccc12 | inconclusive [inhibitor, single point] | 
60 | O=C(N/N=C/c1ccc[nH]1)c1sc2ccccc2c1Cl | active: 0.562 µM | 
61 | Cc1cccc(-n2ncc3c(NCc4cccs4)ncnc32)c1 | inconclusive [inhibitor, single point] | 
62 | O=C(NNC(=O)c1ccc(Oc2cc(Cl)cc(Cl)c2)o1)c1ccccc1 | inconclusive [inhibitor, single point] | 
63 | COC(=O)C1=C(C)N(Cc2ccc(OC)c(OC)c2)C(=O)C1 | inactive | 
64 | Cc1ccc(OCC(=O)N/N=C\c2cccs2)c([N+](=O)[O-])c1 | inconclusive [inhibitor, single point] | 
65 | O=C(O)c1ccc(S(=O)(=O)c2ccc([N+](=O)[O-])cc2[N+](=O)[O-])cc1 | inconclusive [inhibitor, partial curve, poor fit] | 
66 | COc1ccc(CNC(=O)c2cc(C(=O)C3CC3)c[nH]2)cc1 | active: 22.4 µM | 
67 | CC(NC(=O)NC(=O)c1ccc(Cl)cc1Cl)C1CC1 (stereo not drawn) | inconclusive [activator, single point] | 
68 | O=C(Cc1cccc2ccccc12)NC(NC(=S)Nc1ccccc1Cl)C(Cl)(Cl)Cl (stereo not drawn) | inconclusive [inhibitor, single point] | 
69 | CCOC(=O)c1c(NC(=O)C(C)N2CCN(C(=O)c3ccco3)CC2)sc2c1CCCC2 (stereo not drawn) | active: 11.2 µM | 
70 | COc1ccc(C(=O)O/N=C(\N)c2cccc(C)c2)cc1OC | inconclusive [inhibitor, partial curve] | 
71 | CCN(CC)CCNC(=O)c1cc2c(=O)n(CC)c3ccccc3c2s1 | inactive | 
72 | Oc1ccc2ccccc2c1C=Nc1cc(C(F)(F)F)ccc1N1CCCC1 | inconclusive [inhibitor, single point] | 
73 | c1ccc(Nc2nc(NCC3CCCO3)c3ccccc3n2)cc1 (stereo not drawn) | inconclusive [inhibitor, single point] | 
